Measured values as given in the supplement of paper PMC10126150.
Values marked as one replicate rest on one cluster of the flow cell; about a third of the high ones do not repeat.

System: ATP
Assay: switch fluorescence ratio, 500 uM ATP over buffer (Cy3 cluster intensity, sum of 5 cycles each) (fold (ratio)); higher = stronger signal-on switching upon ATP binding; sequences stand for … in TCGTCGGCAGCGTCAGATGTGTATAAGAGACAGTTTTTTTTTTTTTTTTTTTTTTTTT…TC
Conditions: aptamer strand: ATP DNA aptamer (quencher-CACCTGGGGGAGTATTGCGGAGGAAGG + anchor), 100 nM annealed; ATP concentration: 500 uM; one replicate
How it was run: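 Cy3-labelled switching-strand clusters on a modified Illumina MiSeq flow-cell were annealed to 100 nM quencher-labelled ATP aptamer, imaged in selection buffer, then imaged after 15 min with 500 uM ATP at 22 °C. Five buffer/ATP cycles ran, with NaOH stripping and re-annealing between them. The fluorescence ratio is summed target-cycle over summed buffer-cycle Cy3 intensity per cluster, averaged per switch-domain sequence. Clusters outside 100-1000 RFU were excluded.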
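Also: ATP exposure 15 min at 22 °C before imaging.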

GCGTCTAGCA
switch fluorescence ratio: 0.959

ATTGGGCTAG
switch fluorescence ratio: 1

TATTTTTGG
switch fluorescence ratio: 0.989

AGGCGGTGCT
switch fluorescence ratio: 0.965

GGACCCTAAT
switch fluorescence ratio: 0.996

TCTAGAATGA
switch fluorescence ratio: 0.96

GCGGGATCGA
switch fluorescence ratio: 1.14

AACACAAGTC
switch fluorescence ratio: 1.04

TCGACTGGCG
switch fluorescence ratio: 1.07

CCACCAAAAG
switch fluorescence ratio: 1.19

CAATATAGAG
switch fluorescence ratio: 0.997

GGAACTGTGG
switch fluorescence ratio: 0.971

ACGCTTCGCA
switch fluorescence ratio: 1.13

AATAAACCGG
switch fluorescence ratio: 0.994

TGAAAGGTTG
switch fluorescence ratio: 0.995

ATAGTACAAG
switch fluorescence ratio: 1.02

CGTCCAAATT
switch fluorescence ratio: 1.24

GCGACGGTTT
switch fluorescence ratio: 1.04

CAAGAAGTTT
switch fluorescence ratio: 1.01

TTTAGTTATG
switch fluorescence ratio: 0.993

GTTCCAAGGC
switch fluorescence ratio: 1.09

AACGGTAAA
switch fluorescence ratio: 1.03

TTCAGGTCAT
switch fluorescence ratio: 0.991

AAAATGAGCG
switch fluorescence ratio: 1.06

TCGACGTACA
switch fluorescence ratio: 1.36

GCCTCAATCG
switch fluorescence ratio: 1.07

ATGCGGGCTC
switch fluorescence ratio: 0.985

TAGAGTCCGT
switch fluorescence ratio: 1

GGAGCTAGGT
switch fluorescence ratio: 1.04

GAACGAGGAG
switch fluorescence ratio: 0.974

AATTTACGTA
switch fluorescence ratio: 1.12

GAATCCCCCG
switch fluorescence ratio: 1.1

AGTAGGTTTC
switch fluorescence ratio: 1.02

CCCGTATGGG
switch fluorescence ratio: 1.03

CATACGGCCA
switch fluorescence ratio: 1.11

CTGTTGGTCG
switch fluorescence ratio: 0.886

GACCTAACTT
switch fluorescence ratio: 1.03

TGAGGGCGTC
switch fluorescence ratio: 1.04

TCCAGAAGGA
switch fluorescence ratio: 0.95

TCCAGAGTAT
switch fluorescence ratio: 1.06

CGGGCTCTT
switch fluorescence ratio: 0.994

CCTCGAGGTC
switch fluorescence ratio: 1.04

GGTAGCTTTT
switch fluorescence ratio: 1.02

AGAAAAGCCA
switch fluorescence ratio: 0.969

TTAACGACCG
switch fluorescence ratio: 1.18

TTGATAGTG
switch fluorescence ratio: 0.987

CACCTTCTTT
switch fluorescence ratio: 1.03

CTGCAGGTCA
switch fluorescence ratio: 1.02

TTCAACGAGT
switch fluorescence ratio: 1.01

AAACGATTAG
switch fluorescence ratio: 1.02

CACTACGGCG
switch fluorescence ratio: 1.06

TTGGTGGAAA
switch fluorescence ratio: 1.03

ATTCATGTCT
switch fluorescence ratio: 0.998

AGATATATTC
switch fluorescence ratio: 0.962

CCACATACTA
switch fluorescence ratio: 1.46

GACGGGGCAC
switch fluorescence ratio: 1.12

GGCTCCGTTT
switch fluorescence ratio: 1.18

CCACTATAAT
switch fluorescence ratio: 1.18

CTCATCGTGA
switch fluorescence ratio: 1.34

AGGACAAACA
switch fluorescence ratio: 1.13

TTTGGTGTAT
switch fluorescence ratio: 1.03

TTAGTCTGTA
switch fluorescence ratio: 0.984

AATACAGGTA
switch fluorescence ratio: 0.992

GTGGTTCGTA
switch fluorescence ratio: 1.05

TTCAGGGTTG
switch fluorescence ratio: 0.986

CTCCCTTGAT
switch fluorescence ratio: 1.04

ATCACGAGAA
switch fluorescence ratio: 1.06

CCAGCGACAT
switch fluorescence ratio: 1.27

ACGATTCTCT
switch fluorescence ratio: 0.972

AGATGCATT
switch fluorescence ratio: 0.966

GTTTTCGATT
switch fluorescence ratio: 0.965

GATTGAGTG
switch fluorescence ratio: 0.981

CTATTTCTT
switch fluorescence ratio: 1.04

CAAATAGTTG
switch fluorescence ratio: 0.979

ACGTGAGGCG
switch fluorescence ratio: 1.02

ACACCGCTTG
switch fluorescence ratio: 1.14

AAAGTTTCAA
switch fluorescence ratio: 1.01

GTGGCGAGGT
switch fluorescence ratio: 1.04

CCAGTGTAAA
switch fluorescence ratio: 1.01

CTGAAGAGGC
switch fluorescence ratio: 0.991

TCGTTAAGAC
switch fluorescence ratio: 1.53

TAAGTGCTAC
switch fluorescence ratio: 1.03

CGCATTCACT
switch fluorescence ratio: 2.64

AATCATTGAA
switch fluorescence ratio: 0.981

TGATACCTCA
switch fluorescence ratio: 1.04

TATACGTGAC
switch fluorescence ratio: 1.56

GCCCAGAGGT
switch fluorescence ratio: 2.19

ATCATTCCGA
switch fluorescence ratio: 1.14

GTGTAGAGCT
switch fluorescence ratio: 1.04

TGCCCTGTCG
switch fluorescence ratio: 0.98

CATAACGTCC
switch fluorescence ratio: 1.09

GTCCTCTAAG
switch fluorescence ratio: 0.991

TTAGCATTTT
switch fluorescence ratio: 1.01

CAAAAAGGTA
switch fluorescence ratio: 0.992

TATCAGTCGA
switch fluorescence ratio: 1.02

AACGTATTTT
switch fluorescence ratio: 1.11

GCACAAAAAC
switch fluorescence ratio: 1.05

TCGCAGCGGA
switch fluorescence ratio: 1.21

ATTAGGGGCG
switch fluorescence ratio: 1.08

ACGGGGATGG
switch fluorescence ratio: 0.992

TTATTATCG
switch fluorescence ratio: 1.01

TAGTATGACA
switch fluorescence ratio: 1.02

CCAGTGGTGA
switch fluorescence ratio: 1.06

GGGCGTCCTA
switch fluorescence ratio: 1

ATCTGAATC
switch fluorescence ratio: 1.07

CTAAATAGAC
switch fluorescence ratio: 1

GTAAAATGT
switch fluorescence ratio: 0.923

AATTTAACTC
switch fluorescence ratio: 1.04

ATGAAGTGCT
switch fluorescence ratio: 1

ACGCCAACCA
switch fluorescence ratio: 1.31

GTTTGCGGA
switch fluorescence ratio: 0.95

GGTCCAAGA
switch fluorescence ratio: 1

GCAATGGCTG
switch fluorescence ratio: 1.11

GGTCGAGAGT
switch fluorescence ratio: 0.98

AATAGGCCCG
switch fluorescence ratio: 0.973

CTGGCGAAGT
switch fluorescence ratio: 0.999

GTCATCGCCT
switch fluorescence ratio: 0.991

GCTAGTGGAT
switch fluorescence ratio: 0.994

GTTATTAAT
switch fluorescence ratio: 1.02

GTTGAAGCAA
switch fluorescence ratio: 1.82

CGGACCGCGT
switch fluorescence ratio: 1

GCTAAATTAC
switch fluorescence ratio: 1.58

CTTGATTGGA
switch fluorescence ratio: 1.01

CAGCATGTTG
switch fluorescence ratio: 1.02

AACAAGGGTT
switch fluorescence ratio: 0.944

ATACATCGCG
switch fluorescence ratio: 1.07

ACTTCAG
switch fluorescence ratio: 0.975

GACTTACGAC
switch fluorescence ratio: 1.47

GCGTGGAATT
switch fluorescence ratio: 0.958

GTACCATAAC
switch fluorescence ratio: 1.33

TTCGGATATC
switch fluorescence ratio: 1.05

CGGTTATCTC
switch fluorescence ratio: 0.994

GTGGGCTAGA
switch fluorescence ratio: 0.983

AAAAAGCCTA
switch fluorescence ratio: 1.01

AACTTCCTTG
switch fluorescence ratio: 1.29

GTTCGGTCCA
switch fluorescence ratio: 1

CATTGGGATG
switch fluorescence ratio: 1

CTGGCCTTGT
switch fluorescence ratio: 1.02

TGCTAGCCCT
switch fluorescence ratio: 1.03

AAATACGCCT
switch fluorescence ratio: 1.2

GCGTTATTAA
switch fluorescence ratio: 0.973

TTATTCAC
switch fluorescence ratio: 1.05

AGGTCTTGCT
switch fluorescence ratio: 0.941

CGAGCTAAGG
switch fluorescence ratio: 1.08

TTACAAGTCG
switch fluorescence ratio: 1

AATGCTCAGA
switch fluorescence ratio: 1.02

ATGGCGCT
switch fluorescence ratio: 0.941

TAGCTCAACG
switch fluorescence ratio: 0.989

TAGGTCGCCC
switch fluorescence ratio: 0.997

AGCAACATGT
switch fluorescence ratio: 0.995

GGGGAGATAA
switch fluorescence ratio: 0.989

AGCACTAACG
switch fluorescence ratio: 1.54

GACTTCACTT
switch fluorescence ratio: 1.18

AAATACGCAT
switch fluorescence ratio: 1.4

AGGAGGCTGT
switch fluorescence ratio: 1.02

CTGACTTTAC
switch fluorescence ratio: 2.19

GTTGGTTATT
switch fluorescence ratio: 1
